Source: the supplement of paper PMC4967469
A lower IC50 marks a more sensitive line; a fit beyond the top or the lowest dose is shown as a bound at that dose. The AUC spans the tested range (256-fold, ending at the top dose) of the same fit: 1 means no effect, lower means more sensitive. For some of these results: Any top dose called inferred was calculated from the reported fits.

Key:
Test in all cases: Viability of human cancer cell lines after 72 h of drug (GDSC screen)
QL-XI-92 = compound: C=CC(=O)Nc1cc(NC(=O)c2ccc(C)c(NC(=O)c3ccno3)c2)cc(C(F)(F)F)c1 [QL-XI-92]; conditions: top dose 10.24 µM; top dose inferred
Description: (§1)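 Human cancer cell lines in 384-well plates, medium with 10% serum, drug for 72 h over a 256-fold dose range (nine 2-fold or five 4-fold steps up to the top dose). Adherent lines were fixed and stained with the nucleic acid dye Syto60, suspension lines read with resazurin; signal relative to control wells, capped at 0 and 100%. One two-parameter sigmoid per drug and line, fitted in a mixed model over all curves with the slope shared within a line.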

Vinorelbine = compound: CCC1=C[C@@H]2CN(C1)Cc1c([nH]c3ccccc13)[C@@](C(=O)OC)(c1cc3c(cc1OC)N(C)[C@H]1[C@@](O)(C(=O)OC)[C@H](OC(C)=O)[C@]4(CC)C=CCN5CC[C@]31[C@@H]54)C2 [Vinorelbine]; conditions: top dose 0.064 µM; top dose inferred
Description: as §1

AG-014699 = compound: CNCc1ccc(-c2[nH]c3cc(F)cc4c3c2CCNC4=O)cc1 [AG-014699]; conditions: top dose 5 µM; top dose inferred
Description: as §1

XL-184 = compound: COc1cc2nccc(Oc3ccc(NC(=O)C4(C(=O)Nc5ccc(F)cc5)CC4)cc3)c2cc1OC [XL-184]; conditions: top dose 5.12 µM; top dose inferred
Description: as §1

WHI-P97 = compound: COc1cc2ncnc(Nc3cc(Br)c(O)c(Br)c3)c2cc1OC [WHI-P97]; conditions: top dose 10.24 µM; top dose inferred
Description: as §1

Gefitinib = compound: COc1cc2ncnc(Nc3ccc(F)c(Cl)c3)c2cc1OCCCN1CCOCC1 [Gefitinib]; conditions: top dose 0.5 µM
Description: as §1

Phenformin = compound: N=C(N)NC(=N)NCCc1ccccc1 [Phenformin]; conditions: top dose 4000 µM; top dose inferred
Description: as §1

EHT 1864 = compound: O=c1cc(CN2CCOCC2)occ1OCCCCCSc1ccnc2cc(C(F)(F)F)ccc12 [EHT 1864]; conditions: top dose 10 µM; top dose inferred
Description: as §1

NU-7441 = compound: O=c1cc(N2CCOCC2)oc2c(-c3cccc4c3sc3ccccc34)cccc12 [NU-7441]; conditions: top dose 2 µM; top dose inferred
Description: as §1

Cell Line	AUC (QL-XI-92)	IC50 (QL-XI-92)	AUC (Vinorelbine)	IC50 (Vinorelbine)	AUC (AG-014699)	IC50 (AG-014699)	AUC (XL-184)	IC50 (XL-184)	AUC (WHI-P97)	IC50 (WHI-P97)	AUC (Gefitinib)	IC50 (Gefitinib)	AUC (Phenformin)	IC50 (Phenformin)	AUC (EHT 1864)	IC50 (EHT 1864)	AUC (NU-7441)	IC50 (NU-7441)
BICR10 (head and neck, adherent)	0.974	> 10.2 µM	0.822	0.0451 µM	0.97	> 5 µM	0.985	> 5.12 µM	0.985	> 10.2 µM	0.982	> 0.5 µM	0.964	> 4000 µM	0.982	> 10 µM	0.974	> 2 µM
BICR22 (head and neck, adherent)	0.967	> 10.2 µM	0.899	> 0.064 µM	0.926	> 5 µM	0.913	> 5.12 µM	0.974	> 10.2 µM	0.896	> 0.5 µM	0.203	28.2 µM	0.923	> 10 µM	0.914	> 2 µM
BICR78 (head and neck, adherent)	0.981	> 10.2 µM	0.731	0.0204 µM	0.963	> 5 µM	0.949	> 5.12 µM	0.98	> 10.2 µM	0.583	0.0546 µM	0.823	2850 µM	0.921	> 10 µM	0.899	> 2 µM
BT-483 (breast, adherent)	0.967	> 10.2 µM	0.947	> 0.064 µM	0.969	> 5 µM	0.976	> 5.12 µM	0.95	> 10.2 µM	0.963	> 0.5 µM	0.975	> 4000 µM	0.876	> 10 µM	0.972	> 2 µM
C3A (liver, adherent)	0.988	> 10.2 µM	0.904	> 0.064 µM	0.976	> 5 µM	0.988	> 5.12 µM	0.988	> 10.2 µM	0.973	> 0.5 µM	0.904	> 4000 µM	0.884	> 10 µM	0.988	> 2 µM
C32 (melanoma, adherent)	0.987	> 10.2 µM	0.962	> 0.064 µM	0.981	> 5 µM	0.987	> 5.12 µM	0.987	> 10.2 µM	0.97	> 0.5 µM	0.851	3380 µM	0.977	> 10 µM	0.98	> 2 µM
C-4-I (cervix, adherent)	0.986	> 10.2 µM	0.669	0.0123 µM	0.985	> 5 µM	0.961	> 5.12 µM	0.984	> 10.2 µM	0.956	> 0.5 µM	0.937	> 4000 µM	0.984	> 10 µM	0.975	> 2 µM
C-33-A (cervix, adherent)	0.976	> 10.2 µM	0.56	0.00583 µM	0.985	> 5 µM	0.9	> 5.12 µM	0.862	8.79 µM	0.941	> 0.5 µM	0.23	41.1 µM	0.925	> 10 µM	0.974	> 2 µM
CAL-12T (non-small cell lung carcinoma, adherent)	0.893	> 10.2 µM	0.732	0.0201 µM	0.966	> 5 µM	0.884	> 5.12 µM	0.815	6.48 µM	0.894	> 0.5 µM	0.581	427 µM	0.947	> 10 µM	0.906	> 2 µM
HT-1376 (bladder, adherent)	0.985	> 10.2 µM	0.782	0.0317 µM	0.973	> 5 µM	0.985	> 5.12 µM	0.984	> 10.2 µM	0.929	> 0.5 µM	0.773	1830 µM			0.953	> 2 µM
LCLC-97TM1 (large cell lung carcinoma, adherent)	0.835	7.69 µM	0.428	0.00249 µM	0.928	> 5 µM	0.903	> 5.12 µM	0.924	> 10.2 µM	0.975	> 0.5 µM	0.592	459 µM			0.92	> 2 µM
NCI-H810 (large cell lung carcinoma, adherent)	0.914	> 10.2 µM	0.534	0.00492 µM	0.971	> 5 µM	0.906	> 5.12 µM	0.963	> 10.2 µM	0.964	> 0.5 µM	0.625	545 µM			0.987	> 2 µM
NCI-H2342 (lung adenocarcinoma, adherent)	0.986	> 10.2 µM	0.535	0.00505 µM	0.983	> 5 µM	0.969	> 5.12 µM	0.946	> 10.2 µM	0.973	> 0.5 µM	0.873	> 4000 µM			0.986	> 2 µM
SISO (cervix, adherent)	0.963	> 10.2 µM	0.583	0.00669 µM	0.969	> 5 µM	0.978	> 5.12 µM	0.979	> 10.2 µM	0.968	> 0.5 µM	0.571	388 µM			0.974	> 2 µM
SW756 (cervix, adherent)	0.974	> 10.2 µM	0.845	0.0597 µM	0.985	> 5 µM	0.98	> 5.12 µM	0.984	> 10.2 µM	0.985	> 0.5 µM	0.952	> 4000 µM			0.976	> 2 µM
SiHa (cervix, adherent)	0.987	> 10.2 µM	0.917	> 0.064 µM			0.987	> 5.12 µM	0.984	> 10.2 µM	0.985	> 0.5 µM	0.419	145 µM	0.983	> 10 µM	0.981	> 2 µM
